The supplement of paper PMC6531468
The other results are listed elsewhere or left out. Read counts after selection give these values, which scatter widely. Each score is taken over the longer molecules that contain the sequence shown.

The sequences below were run against IMP3 full-length (UniProt O00425) (assay: 6-mer SELEX enrichment z-score vs GST control; IMP3 is the RNA-binding protein IGF2BP3; higher = more enriched by binding). Details: construct: FL IMP3 (1-579); SELEX round: R4.
UniProt O00425, sequence (O00425 whole entry): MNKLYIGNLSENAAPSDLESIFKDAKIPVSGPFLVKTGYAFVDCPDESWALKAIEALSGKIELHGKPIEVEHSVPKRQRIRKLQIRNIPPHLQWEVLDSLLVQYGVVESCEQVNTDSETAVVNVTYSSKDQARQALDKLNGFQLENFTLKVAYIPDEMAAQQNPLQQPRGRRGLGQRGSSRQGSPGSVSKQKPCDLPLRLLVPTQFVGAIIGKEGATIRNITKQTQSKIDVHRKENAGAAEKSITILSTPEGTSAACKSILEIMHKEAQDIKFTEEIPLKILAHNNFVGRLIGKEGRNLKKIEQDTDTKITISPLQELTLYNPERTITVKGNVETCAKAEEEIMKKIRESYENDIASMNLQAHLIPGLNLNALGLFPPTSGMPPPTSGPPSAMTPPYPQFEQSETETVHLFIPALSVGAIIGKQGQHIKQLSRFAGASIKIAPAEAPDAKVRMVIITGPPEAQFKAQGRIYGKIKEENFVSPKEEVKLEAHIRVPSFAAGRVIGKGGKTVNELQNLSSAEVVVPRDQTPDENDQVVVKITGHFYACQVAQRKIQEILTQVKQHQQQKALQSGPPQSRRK
Experimental: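 SELEX-seq with GST-tagged full-length IMP3 and an N40 RNA pool, round 4. Each 6-mer is scored as an enrichment z-score of sequence tags containing it, normalised to the matching GST SELEX round. RNA written as DNA (T = U).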
In the case of ATCAGT, the “6-mer SELEX enrichment z-score” value is reported as 1.22. AACGTG was tested, and the “6-mer SELEX enrichment z-score” value was -1.16. In the case of TACACG, the “6-mer SELEX enrichment z-score” value is reported as 0.56. In the case of GTGTCT, the “6-mer SELEX enrichment z-score” value is reported as 0.148. With CAGGGG the “6-mer SELEX enrichment z-score” value was 0.585. With ATCGGT the “6-mer SELEX enrichment z-score” value was 0.321. In the case of CATGCC, the “6-mer SELEX enrichment z-score” value is reported as 0.115. For CATTGG, the “6-mer SELEX enrichment z-score” value was 0.56. For CGCCGC, the “6-mer SELEX enrichment z-score” value was 0.592. For TGTGAT, the “6-mer SELEX enrichment z-score” value was -0.077. In the case of TTTGGG, the “6-mer SELEX enrichment z-score” value is reported as 0.059. With TTCGAG the “6-mer SELEX enrichment z-score” value was -0.595. With CATCTT the “6-mer SELEX enrichment z-score” value was 0.796. In the case of TGCTGT, the “6-mer SELEX enrichment z-score” value is reported as 0.119. In the case of CGTTGC, the “6-mer SELEX enrichment z-score” value is reported as -0.22. CAAAAA was tested, and the “6-mer SELEX enrichment z-score” value was -3.21. For GGTACT, the “6-mer SELEX enrichment z-score” value was -0.208. For CGTTGA, the “6-mer SELEX enrichment z-score” value was -0.655. In the case of ATCAAC, the “6-mer SELEX enrichment z-score” value is reported as 1.69. For TCTTGA, the “6-mer SELEX enrichment z-score” value was -0.423. For CCAACA, the “6-mer SELEX enrichment z-score” value was 0.263. With TCAGTT the “6-mer SELEX enrichment z-score” value was 0.663. In the case of AGGGAT, the “6-mer SELEX enrichment z-score” value is reported as 0.169. For CACGGT, the “6-mer SELEX enrichment z-score” value was 0.615. TTTAGT was tested, and the “6-mer SELEX enrichment z-score” value was 0.202. TTAGAG was tested, and the “6-mer SELEX enrichment z-score” value was -0.301. ATTTTT was tested, and the “6-mer SELEX enrichment z-score” value was 0.434. In the case of AAGCGT, the “6-mer SELEX enrichment z-score” value is reported as -2.36. For GAGTGC, the “6-mer SELEX enrichment z-score” value was -0.228. TTTGCC was tested, and the “6-mer SELEX enrichment z-score” value was -0.46. In the case of TTTCCG, the “6-mer SELEX enrichment z-score” value is reported as 0.012. For TTCGAT, the “6-mer SELEX enrichment z-score” value was -0.14. With GCATGG the “6-mer SELEX enrichment z-score” value was 0.964. GCTCTT was tested, and the “6-mer SELEX enrichment z-score” value was 0.222. With GCCGAG the “6-mer SELEX enrichment z-score” value was 0.007. In the case of ATAGGG, the “6-mer SELEX enrichment z-score” value is reported as 0.434. TTGAAT was tested, and the “6-mer SELEX enrichment z-score” value was -0.306. For ATGTCA, the “6-mer SELEX enrichment z-score” value was 0.302. For CAGGCG, the “6-mer SELEX enrichment z-score” value was 1.03. In the case of TTAGAC, the “6-mer SELEX enrichment z-score” value is reported as -0.28.
